According to PubChem BioAssay AID624296 (National Center for Advancing Translational Sciences (NCATS), 2012):
“And” between values parts separate entries of the source, which are not always exact repeats. Equal entries are not always repeated. About 9,900 (2.8%) of roughly 350,000 compounds were called active. This list was built around the results that the source calls inconclusive (neither active nor inactive); the mix of calls is not that of the screen. Calls come from the whole dose curve; as a rule, active = well fitted activation curve with a large enough effect; inconclusive = small, poorly fitted or top-dose-only effect; inactive = no such curve, though single readings can be large or run the other way. Where the call is inconclusive, the potency comes from a doubtful curve fit.

Test: A quantitative high throughput screen for small molecules that induce DNA re-replication in MCF 10a normal breast cells. Note: nearly all actives have a fitted effect of over 50% in size.
Conditions: MCF 10A DNA re-replication, Hoechst nuclear intensity, 48 h; series mostly up to 46.1 µM
Potency is the fitted concentration of half-maximal effect; tags give direction and shape of the fitted curve.

SMILES	Potency
CN(C)c1ccc(/C=N/NC(=O)C2COc3ccccc3O2)o1 (configuration not stated)	inactive
Cc1cc(C)n(-c2nc3ccccc3c(=O)n2OCC(=O)N(C)C)n1	inactive
CC(C)Nc1nc2nonc2nc1Nc1ccccc1	inconclusive: 2.59 µM [activator, partial curve, poor fit]
O=C(NCc1ccco1)C1CCCN1S(=O)(=O)c1ccccc1C(F)(F)F (configuration not stated)	inconclusive: 0.651 µM [activator, partial curve, poor fit]
C/C=C/c1ccc(OCC(=O)N2CCc3cc(OC)c(OC)cc3C2)c(OC)c1	inconclusive: 32.6 µM [activator, partial curve, poor fit]
CCc1nn2c(N)c(/C=C3\C=Nc4ccccc43)c(=O)nc2s1	inconclusive: 9.2 µM [activator, partial curve, poor fit] and inconclusive: 14.6 µM [activator, single point]
Cc1ccccc1Cn1ccc(NC(=O)c2cnn3c(C(F)(F)F)cc(-c4ccco4)nc23)n1	inconclusive: 32.6 µM [activator, partial curve, poor fit]
CCOc1ccc(N2CC(C(=O)NCc3ccc4c(c3)OCO4)CC2=O)cc1 (configuration not stated)	inconclusive: 23.1 µM [activator, partial curve, poor fit]
Cc1ccccc1Cn1nc(C)c(NC(=O)c2cc(CC(C)C)on2)c1C	inactive
C=CCNc1nc2c(c(=O)[nH]c(=O)n2C)n1CC(O)COc1ccc2ccccc2c1 (configuration not stated)	inconclusive: 29.1 µM [activator, partial curve, poor fit]
N#Cc1c(-c2cccs2)cc(-c2cccs2)[nH]c1=O	inconclusive: 5.8 µM [activator, partial curve, poor fit]
CCCN(CC(=O)Nc1ccc(Cl)cc1Cl)C(=O)/C=C/c1ccco1	active: 9.2 µM
Cn1c(CSCc2ccc(F)cc2)nnc1SCC(=O)Nc1nccs1	inactive
CCc1cc(/C(Cc2ccccn2)=N\O)c(O)cc1O	inactive
Cc1ccc2nc(-c3ccc(NC(=S)NC4CC(C)(C)NC(C)(C)C4)cc3)sc2c1	active: 29.1 µM
CC1(C)CC(=O)C2=C(C1)Nc1ccccc1S2	inconclusive: 20.6 µM [activator, single point]
CCN1CCN(c2ccc(S(=O)(=O)N3CCCCC3)cc2NC(=O)/C=C/c2cccc(OC)c2OC)CC1	inconclusive: 20.6 µM [activator, partial curve, poor fit]
COc1cc(C2C(=O)c3ccccc3C2=O)ccc1O	inactive
CN(C)c1ccc(C=c2c3ccccc3n3c2c2ccccc2[n+]3C)cc1	inconclusive: 3.26 µM [activator, full curve, poor fit]
COc1cc(CNc2ccc(O)cc2)cc(Br)c1OCc1ccccc1F	inconclusive: 29.1 µM [activator, single point]
COc1cc(/C=N/NC(=O)Cn2nc([N+](=O)[O-])cc2C)cc(Br)c1OCc1ccccc1	inconclusive: 35.5 µM [activator, single point]
COc1ccc([C@H]2CC(=O)C=C(c3ccc(Cl)c(C(F)(F)F)c3)C2)cc1OC	inconclusive: 0.184 µM [activator, full curve]
CCO[C@@H]1c2c(ccc3ccc(=O)oc23)OC(C)(C)[C@@H]1O	inactive

SMILES	Potency
Nc1ccc(N=Nc2ccc(O)cc2)c(N)n1	inactive
NC(=O)c1cc([N+](=O)[O-])c(Cl)cc1NCc1cccnc1	inconclusive: 0.82 µM [activator, full curve, poor fit]
O=C(CSc1nnc(Cc2cccs2)n1C1CC1)NC1CCS(=O)(=O)C1 (configuration not stated)	inconclusive: 29.1 µM [activator, single point]
CN(c1ccccc1)S(=O)(=O)c1ccc2c(c1)oc(=O)n2C	inconclusive: 32.6 µM [activator, partial curve, poor fit]
COc1cc(-c2noc(C)c2C#Cc2ccc(N)cc2)cc(OC)c1OC	inconclusive: 0.0016 µM [activator, full curve, poor fit]
Cc1nnc(SC(C)C(=O)Nc2ccc3ccccc3c2)[nH]c1=O (configuration not stated)	inconclusive: 6.51 µM [activator, single point]
O=C(Nc1nc(COc2ccccc2)cs1)C12CC3CC(CC(C3)C1)C2	active: 8.2 µM
COC(=O)c1sccc1N/N=C/c1cccc(OC)c1O	inconclusive: 14.6 µM [activator, partial curve, poor fit]
Cc1ccc(-c2csc(NC(=O)CSc3ncn(-c4ccccc4)n3)n2)cc1	inconclusive: 32.6 µM [activator, partial curve, poor fit]
CCOCCCn1c(=NC(=O)c2cccnc2)c(C(=O)OCC)cc2c(=O)n3ccccc3nc21	inconclusive: 16.4 µM [activator, single point]
O=C(OCCN1C(=O)c2cccc3c(N4CCOCC4)ccc(c23)C1=O)c1ccc(Cl)cc1Cl	inconclusive: 29.1 µM [activator, single point]
CC1=C(C(=O)O)CC(S(=O)(=O)O)C1(C)C (configuration not stated)	inactive
CCOC(=O)c1ccc(Nc2sc(C(=O)c3cccc([N+](=O)[O-])c3)c(N)c2C#N)cc1	inconclusive: 0.461 µM [activator, full curve, poor fit]
O=C1c2cccnc2C(Nc2ccc(S(=O)(=O)N3CCCCCC3)cc2)N1Cc1ccccc1 (configuration not stated)	inconclusive: 2.59 µM [activator, full curve, poor fit]
COc1cc(C2OC(=O)C3C(c4ccc(OC(C)=O)c(OC)c4)OC(=O)C23)ccc1OC(C)=O (configuration not stated)	inconclusive: 25.9 µM [activator, partial curve, poor fit]
CC(NC(=O)c1cc(-c2ccc3c(c2)OCO3)nc2ccccc12)C(C)(C)C (configuration not stated)	inconclusive: 8.2 µM [activator, partial curve]
Cc1sc(N/N=C/c2cc([N+](=O)[O-])ccc2O)nc1-c1ccccc1	inconclusive: 8.2 µM [activator, partial curve, poor fit]
Cc1ccc(OCC(=O)Nn2cnc3ccccc32)cc1	inconclusive: 0.0291 µM [activator, partial curve, poor fit]
CCOC(=O)CC1=NN(c2ccccc2)C(=O)/C1=C\c1ccc(OC)cc1OC	active: 10.3 µM
CC(C)N(CCNC(=O)C1CCCN(c2ncnc3c2nc2n3CCCCC2)C1)Cc1ccccc1 (configuration not stated)	inconclusive: 6.51 µM [activator, partial curve, poor fit]
CN1C(=O)c2cccc3c(S(=O)(=O)NCCc4ccccc4)ccc1c23	active: 23.1 µM
COc1ccc2ccccc2c1C1NC(=O)c2ccccc2N1 (configuration not stated)	active: 5.17 µM
Cc1nc(N)sc1-c1csc(Nc2cccc(C(=O)O)c2)n1	inactive

SMILES	Potency
CC1CCN(S(=O)(=O)c2cccc(C(=O)NC3CCCCC3)c2)CC1	inactive
N#Cc1sc2nc3c(c(-c4cccnc4)c2c1N)CCC3	inconclusive: 1.64 µM [activator, full curve, poor fit]
CCOc1ccc(C(=O)N2CCCC(c3nc(-c4ccc(C)o4)no3)C2)cc1 (configuration not stated)	inactive
Cc1ccc(C(=O)N2N=C(c3ccc(Br)cc3)CC2c2ccccc2O)cc1 (configuration not stated)	active: 18.4 µM
CC(C)(C)c1ccc(C(=O)/C(C#N)=C/c2cccs2)cc1	inconclusive: 25.9 µM [activator, single point]
CCN(C(=O)COC(=O)CCc1ccccc1OC)c1c(N)n(Cc2ccccc2)c(=O)[nH]c1=O	inactive
O=C(O)CCC(=O)N1CCN(c2cccc(Cl)c2)CC1	inconclusive: 1.84 µM [activator, full curve, poor fit]
O=C1c2ccccc2S(=O)(=O)c2cc(N3CCOCC3)ccc21	inconclusive: 29.1 µM [activator, single point]
COc1ccccc1NS(=O)(=O)c1cccc(NC(=O)c2[nH]c(C)c(C(C)=O)c2C)c1	inconclusive: 18.4 µM [activator, single point]
Cc1ccc(NC(=S)Nc2ccc3nc(-c4ccccn4)c(-c4ccccn4)nc3c2)cc1C	inconclusive: 32.6 µM [activator, partial curve, poor fit]
COc1cccc(CNC23CC4CC(CC(C4)C2)C3)c1OCc1ccccc1	inactive
COc1ccc(C(=O)NC(C)CCc2ccccc2)c(O)c1 (configuration not stated)	inconclusive: 20.6 µM [activator, single point]
CCOC(=O)c1c[nH]c2ccc([N+](=O)[O-])cc12	inactive
COc1ccc(CN=C2NN=C(c3ccccc3)CS2)cc1	inconclusive: 29.1 µM [activator, single point]
Cc1ccc(NC(=S)N2CCCCC2)cc1C	inconclusive: 20.6 µM [activator, single point]
Cc1ccc(NC(=O)c2ccccc2F)nc1	inconclusive: 2.91 µM [activator, full curve, poor fit]
Cc1onc(-c2ccccc2)c1C(=O)Nc1ccc(Br)cc1Cl	inconclusive: 20.6 µM [activator, single point]
O=C(c1c[nH]c(C(=O)N2CCN(c3ccccc3F)CC2)c1)c1cccc(Cl)c1Cl	active: 3.66 µM
Cc1cccc(NC(=O)C(C)n2cc([N+](=O)[O-])cn2)n1 (configuration not stated)	inactive
O=C(NC1CCCN(Cc2ccc(Cl)cc2)C1)c1cccc(N2CCCC2=O)c1 (configuration not stated)	inconclusive: 23.1 µM [activator, partial curve, poor fit]
CC1CCC(NC(=O)Cn2c3c(c(-c4ccccc4Cl)cc2=O)CCC3)CC1 (configuration not stated)	inconclusive: 25.9 µM [activator, single point]
